Results reported in paper PMC9574860, “Chemical Toolkit for PARK7: Potent, Selective, and High-Throughput” (Journal of Medicinal Chemistry, 2022).
About 400 (5.1%) of roughly 7,900 compounds showed an effect of 50% or more. The list shows a part of the results.

These molecules were tested against Parkinson's disease protein 7 (PARK7/DJ1) (human, UniProt Q99497) (assay: primary screen, percent inhibition; read as competition with a fluorescent probe by fluorescence polarization; higher = more effect of the substance). Settings: 100 µM.
Sequence of Parkinson's disease protein 7 (PARK7/DJ1) (Q99497 whole entry, looked up, the tested form may be a part): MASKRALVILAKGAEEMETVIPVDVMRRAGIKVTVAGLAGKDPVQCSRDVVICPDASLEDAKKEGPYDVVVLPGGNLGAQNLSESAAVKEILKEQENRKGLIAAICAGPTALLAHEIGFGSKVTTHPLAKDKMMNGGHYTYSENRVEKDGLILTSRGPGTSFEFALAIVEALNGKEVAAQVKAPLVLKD
In short: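 Fluorescence-polarization probe displacement (JYQ-107, 20 nM final, 2 h) after 2 h preincubation of PARK7 (0.2 μM final) with each fragment at 100 μM final. Read-out ex/em 480/520 nm; remaining activity derived from FP signal loss relative to reference controls.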
`OB(O)c1cc(F)cc2ccoc12` gave an Inhibition % of 2.99%.
`CC(C)NC(=O)C(C#N)=Cc1ccccc1OC(C)C` was tested, and the Inhibition % was 3.42%.
Molecule `C=CC(=O)N1CCN(C2CC2)c2ccccc21` has an Inhibition % of 15.7%.
Work on `C=CC(=O)NCc1cc(OC)nc2ccccc12` yielded an Inhibition % of 1.86%.
For `N#Cc1ncn(Cc2cccc(Cl)c2)n1`, the Inhibition % was 5.75%.
`ClCC1CN(Cc2ccccc2)CCO1` (centres unmarked) was tested, and the Inhibition % was 6.82%.
`Cc1nc(C=CC(=O)N2CC(C(N)=O)CCC2C)cs1` (centres unmarked) showed an Inhibition % of -0.565%.
Work on `N#CC(=Cc1ccc(O)cc1)C(=O)O` yielded an Inhibition % of 5.87%.
`Cc1ccc(S(=O)(=O)n2cccn2)cc1` showed an Inhibition % of 6.92%.
`C=CC(=O)NCc1cccc(C(=O)O)c1` was tested, and the Inhibition % was 10.6%.
For `COC(=O)c1ccc(C)c(B2OC(C)(C)C(C)(C)O2)c1`, the Inhibition % was 5.09%.
`C=CC(=O)NC1CC(C)(F)C1` (centres unmarked) was tested, and the Inhibition % was 0.437%.
Work on `COc1cc(NC(=O)CCl)c(Cl)cc1C(=O)O` yielded an Inhibition % of 13.3%.
With `C=CC(=O)N1CCSC(C)C1C` (centres unmarked) the Inhibition % was 7.23%.
`N#CC(=Cc1ccc(-c2nc3ccccc3s2)o1)C(=O)O` gave an Inhibition % of 3.06%.
In the case of `OB(O)c1cc(F)cc(COC2CCCCC2)c1`, the Inhibition % is reported as -3.11%.
In the case of `SCCc1nn[nH]n1`, the Inhibition % is reported as 14.9%.
Work on `C=CCNC(=O)C(C#N)=Cc1ccc(C)s1` yielded an Inhibition % of -1.57%.
`C=CC(=O)N1CC(F)(c2ccccc2F)C1` showed an Inhibition % of 6.22%.
Work on `O=C(CCl)Nc1ccc(Cl)c([N+](=O)[O-])c1` yielded an Inhibition % of 29.8%.
`CC(NC(=O)c1c[nH]c(C#N)c1)C(C)(F)F` (centres unmarked) showed an Inhibition % of 6.11%.
`C=CC(=O)N1CCC(Cc2ccccn2)CC1` was tested, and the Inhibition % was 7.51%.
In the case of `C=CC(=O)NC1CC2OCCCC12` (centres unmarked), the Inhibition % is reported as 9.61%.
`O=C(NC1CCOC2(CCCCC2)C1)c1cccnc1S` (centres unmarked) gave an Inhibition % of 6.61%.
In the case of `C=CC(=O)N1CCCC(Cn2cncn2)C1` (centres unmarked), the Inhibition % is reported as 1.6%.
In the case of `C=CC(=O)Nc1ccc(OC)cc1`, the Inhibition % is reported as 5.38%.
For `C=CC(=O)NC1CCOC(C(C)C)C1` (centres unmarked), the Inhibition % was 9.78%.
In the case of `C=CC(=O)Nc1nc2c(s1)COCC2`, the Inhibition % is reported as 6.4%.
Molecule `COC(=O)C1OC12CCCOC2` (centres unmarked) has an Inhibition % of 3.97%.
In the case of `CCc1[nH]c(S)nc(=O)c1C`, the Inhibition % is reported as 8.89%.
`CC1CCCN(CCCl)C1.Cl` (centres unmarked) gave an Inhibition % of 4.27%.
For `C=CC(=O)NC(c1cccnc1)C1CC1` (centres unmarked), the Inhibition % was 7.66%.
Molecule `CN(Cc1nc2ccccc2[nH]1)S(=O)(=O)C1=CCCCC1` has an Inhibition % of 8.82%.
Molecule `C=CC(=O)N1CCC(c2cc(C(=O)O)n(C)n2)CC1` has an Inhibition % of 10.5%.
Work on `CC1(C)SC(=O)N(Cc2cccnc2)C1=O` yielded an Inhibition % of 4.44%.
Work on `Cc1nn(C)c(Cl)c1C=CC(=O)N1CCC(C(=O)O)C1.Cl` (centres unmarked) yielded an Inhibition % of 7.34%.
`O=C(c1ccc(Cl)cc1F)N1CCCCC1C1OCCO1` (centres unmarked) showed an Inhibition % of 1.46%.
`C=CC(=O)NC(C)c1ccc2c(c1)OC(CC)C(=O)N2` (centres unmarked) showed an Inhibition % of 2.83%.
In the case of `CN1CCC(Nc2ccc(C#N)nc2)C1c1ccccc1` (centres unmarked), the Inhibition % is reported as -1.06%.
`Cc1cc(NS(=O)(=O)C=Cc2ccccc2Cl)n(C)n1` was tested, and the Inhibition % was 8.51%.
With `Cc1ncc(C=CC(=O)N2CCC(C(=O)O)C2)s1.Cl.Cl` (centres unmarked) the Inhibition % was 7.82%.
With `O=c1c2ccccc2nc(S)n1CCS` the Inhibition % was 7.43%.
`N#Cc1ncn(CC2CCC(F)(F)CC2)n1` gave an Inhibition % of 17.4%.
For `CC1Oc2ccccc2N(CCCl)C1=O` (centres unmarked), the Inhibition % was 15.4%.
With `Cc1cc(NC(=O)CCl)n(-c2ccc(F)cc2)n1` the Inhibition % was 16.3%.
`O=c1onc(-c2ccccc2)n1CC1CCOC1` (centres unmarked) showed an Inhibition % of 2.8%.
Work on `COc1ccc2nc(NC(=O)CCl)sc2c1` yielded an Inhibition % of 14.5%.
`C=CC(=O)NC1CCOc2c(F)cccc21` (centres unmarked) showed an Inhibition % of 4.11%.
`CCCn1c(C)cc(C=C(C#N)C(=O)O)c1C` was tested, and the Inhibition % was 10.4%.
For `C=CC(=O)NC1CCCCCCC1`, the Inhibition % was 6.94%.
Molecule `N#Cc1cccc(Oc2ccc(C(=O)NC3CC3)cc2)n1` has an Inhibition % of 3.09%.
For `Cc1nc(C(C)C)oc1Cn1ccnc1C#N`, the Inhibition % was 8.62%.
Molecule `CNC(=O)Oc1cccc2ccccc12` has an Inhibition % of 15.7%.
For `C=CC(=O)N1CCC2(CC1)OCCCO2`, the Inhibition % was 5.02%.
Molecule `O=C(CCl)Nc1cccc(Oc2ccccc2)c1` has an Inhibition % of 55.6%.
For `Cn1nccc1C=CC(=O)N1CCOCC1`, the Inhibition % was 24.5%.
With `C=CC(=O)NCC1CCOC1` (centres unmarked) the Inhibition % was 14.2%.
In the case of `C=CC(=O)N1C[C@@H]2C[C@H](C1)c1cccc(=O)n1C2`, the Inhibition % is reported as 9.87%.
`C=CC(=O)N1CCCC(c2ncno2)C1` (centres unmarked) gave an Inhibition % of 10.3%.
For `N#Cc1ccc(NC2CC(F)(F)C2)cn1`, the Inhibition % was 4.45%.
`OB(O)C1CCN(Cc2ccccc2)C1` (centres unmarked) showed an Inhibition % of 10.1%.
Work on `Cc1cccc(C)c1OCCNC(=O)CCl` yielded an Inhibition % of 8.34%.
`C=CC(=O)NCC1CCCN(c2nccn3cnnc23)C1` (centres unmarked) gave an Inhibition % of 16.5%.
`CC1(C)OB(c2ccc(C(F)(F)F)cc2C#N)OC1(C)C` was tested, and the Inhibition % was 8.26%.
In the case of `C=CC(=O)N1CCCC1C1COCCC1(C)O` (centres unmarked), the Inhibition % is reported as 3.6%.
`CC(CNc1nccnc1C#N)c1ccc(F)c(F)c1` (centres unmarked) gave an Inhibition % of 22.4%.
For `C=CC(=O)NC1CCN(c2cccc(C(F)(F)F)c2)CC1`, the Inhibition % was 2.44%.
In the case of `C=CS(=O)(=O)Nc1ccccc1`, the Inhibition % is reported as 6.78%.
Molecule `CC(NC(=O)c1cccnc1S)c1nnc2n1CCCC2` (centres unmarked) has an Inhibition % of 14.4%.
`C=CC(=O)NC1CCC(c2nc(C)no2)CC1` (centres unmarked) gave an Inhibition % of 4.65%.
With `Cn1cccc1S(=O)(=O)F` the Inhibition % was 14.2%.
`Cc1ccnc(NC(=O)CCN2C(=O)CCC2=O)c1` was tested, and the Inhibition % was 2.55%.
With `CN(C)C=C(C#N)c1ccccn1` the Inhibition % was 19.1%.
`Cc1nn(C)c(Cl)c1C=CC(=O)N1CCOCC1` showed an Inhibition % of 21.5%.
`N#Cc1nc(Cl)ccc1F` gave an Inhibition % of 8.62%.
`C=CC(=O)N1CCCCC1c1ccccc1` (centres unmarked) showed an Inhibition % of 12.3%.
In the case of `COc1ccc(CN(C)C(=O)CCl)cc1F`, the Inhibition % is reported as 58.3%.
`CC1(C)OB(c2ccc(S(C)(=O)=O)cc2)OC1(C)C` was tested, and the Inhibition % was 3.95%.
`C=CC(=O)N1CCN(CC2CCOCC2)CC1` gave an Inhibition % of 12.9%.
`C=CC(=O)N1CCC(Cc2cccnc2)CC1` gave an Inhibition % of 11%.
`O=C(CCl)c1ccc(C(F)(F)F)cc1` showed an Inhibition % of 12%.
Molecule `C=CC(=O)N1CCOc2ccc(S(C)(=O)=O)cc21` has an Inhibition % of 13.6%.
In the case of `C=CC(=O)N1CC(S(=O)(=O)N2CCc3ccccc32)C1`, the Inhibition % is reported as 3.57%.
Molecule `CC(C)(C)OC(=O)N1CCC(B2OC(C)(C)C(C)(C)O2)CC1` has an Inhibition % of 1.74%.
With `O=C(CCl)NCc1cc([N+](=O)[O-])ccc1O` the Inhibition % was 18.7%.
Work on `O=c1c2ccccc2nc(S)n1CCCN1CCOCC1` yielded an Inhibition % of 8.44%.
`O=C(CCCl)Nc1cccc(F)c1` was tested, and the Inhibition % was 5.31%.
In the case of `Nc1ccccc1OC1CC(=O)N1` (centres unmarked), the Inhibition % is reported as 8.49%.
`CC1CC(N)CCN1C(=O)C=CC1CCOCC1` (centres unmarked) was tested, and the Inhibition % was 14.8%.
With `O=C(CCl)NCCOc1ccc2c(c1)OCO2` the Inhibition % was 14%.
`Cc1cc(C)c(-c2csc(NC(=O)CCl)n2)cc1C` gave an Inhibition % of 5.92%.
`Cc1ccc(C)c(NC(=O)CN2CCSC2=O)c1` gave an Inhibition % of 4.62%.
In the case of `C=CC(=O)N1Cc2sccc2CC1(C)C`, the Inhibition % is reported as 14.7%.
`C=CC(=O)N(CC)Cc1ccc2ccccc2n1` was tested, and the Inhibition % was 10.2%.
`O=C(CCl)NC(=O)Nc1ccc2c(c1)OCO2` was tested, and the Inhibition % was 1.46%.
In the case of `C=CC(=O)NC(NC(=O)C=C)c1ccccc1`, the Inhibition % is reported as 11.8%.
`COC(=O)c1cc(B2OC(C)(C)C(C)(C)O2)c(N)cc1OC` was tested, and the Inhibition % was 7.25%.
`CC1(C)CC(NC(=O)c2ccc(S(=O)(=O)F)cc2)CCO1` (centres unmarked) gave an Inhibition % of 14.4%.
`C=CC(=O)NC(C)c1c(C)nn(CC(F)(F)F)c1C` (centres unmarked) gave an Inhibition % of 4.48%.
`C=CC(=O)Nc1cccc(OC)c1` was tested, and the Inhibition % was 6.69%.
For `Cl.O=C(CCl)Nc1nc2ccccc2s1`, the Inhibition % was 16.8%.
`N#Cc1nccn1Cc1cccc(F)c1F` showed an Inhibition % of 4.63%.
In the case of `C=CC(=O)N(C)Cc1nc(C(F)(F)F)cs1`, the Inhibition % is reported as 7.08%.
Molecule `C=CCNC(=O)C(C#N)=Cc1ccc(N(C)C)cc1` has an Inhibition % of 2.49%.
`O=C1CC(Cc2ccccc2)N1` (centres unmarked) was tested, and the Inhibition % was 3.33%.
`CC1CC(N2CC=C(c3ccc(F)cc3)CC2)C(=O)O1` (centres unmarked) gave an Inhibition % of 5.18%.
`Cc1ccccc1CNC(=O)CCl` gave an Inhibition % of 5.79%.
Molecule `CC1CNCCN1C(=O)C=Cc1cccnc1` (centres unmarked) has an Inhibition % of 10%.
`C=CC(=O)N1CCCC1c1cnn(C)c1` (centres unmarked) was tested, and the Inhibition % was 10%.
Molecule `CCOc1ccc(C(C)C)cc1S(=O)(=O)n1ccnc1C` has an Inhibition % of 9.12%.
Molecule `CCC(CO)n1c(S)nc2ccccc2c1=O` (centres unmarked) has an Inhibition % of 6.84%.
Work on `N#Cc1ccsc1NC(=O)CN1CCSC1=O` yielded an Inhibition % of 5.08%.
Work on `CC(C)(C)OC(=O)N1CCC=C(B2OC(C)(C)C(C)(C)O2)C1` yielded an Inhibition % of 0.918%.
`Cc1nn(C)c(C)c1CNc1ccc(C#N)nc1` was tested, and the Inhibition % was 10.1%.
`CC1(C)C(=O)NC1c1ccccc1` (centres unmarked) was tested, and the Inhibition % was 5.46%.
`C=CC(=O)N1CCN(c2ccc(C(F)(F)F)cc2)CC1` was tested, and the Inhibition % was 3.27%.
With `CC(C)NC(=O)C(C#N)=Cc1c(Cl)nc2ccccn12` the Inhibition % was -2.18%.
`O=C(CCl)NNC(=O)c1cc2ccccc2[nH]1` showed an Inhibition % of 1.5%.
`COC(=O)Nc1ccc(S(=O)(=O)F)cc1[N+](=O)[O-]` showed an Inhibition % of 101%.
For `Cl.O=c1[nH]nc(C2CCCNC2)o1` (centres unmarked), the Inhibition % was 5.47%.
`N#CC(=CC=Cc1ccccc1)C(=O)N1CCCC1` showed an Inhibition % of 10.9%.
With `Clc1cccc(CC2CO2)c1` (centres unmarked) the Inhibition % was 4.72%.
Work on `N#Cc1ncn(CC(=O)N(C2CCCC2)C2CC2)n1` yielded an Inhibition % of 11.3%.
`CC1(C)OB(c2ccc(C(F)(F)C(F)(F)F)cc2)OC1(C)C` was tested, and the Inhibition % was 6.7%.
`CSCC(=O)N1CCN(c2oc(C)nc2C#N)CC1` was tested, and the Inhibition % was 8.43%.
